Consider 34 molecules from PubChem BioAssay (NCI).

Where “and” joins values, the source holds several entries; their conditions need not be identical. Equal entries are not always repeated.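 96-well plates; 48 h exposure; 5 concentrations. Endpoints by linear interpolation between flanking doses. Not reached: highest tested concentration assigned. The concentration for 50% growth inhibition is given as GI50. Definition used: TGI = concentration required for complete inhibition of growth.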

In this assay the test system is NCI-H322M lung. Nature of the assay: growth of human tumour cells (NCI), 48 h.

With `COc1ccc(C2CC(c3ccc4ccccc4c3)=NN2c2nc(O)c(C3=c4cc(OC)ccc4=NC3=O)s2)cc1` (stereo unspecified), the GI50 is 0.0669 µM and the TGI was determined as 0.852 µM.
For the molecule `O=C(/C=C/c1ccc(O)c(O)c1)NC(COC(=O)/C=C/c1ccc(O)c(O)c1)C(=O)O` (stereo unspecified), the TGI was above 100 µM.
`CCC(c1ccc(OC)cc1)C1NC(=S)NC1=O` (stereo unspecified) showed a TGI above 50 µM.
Take `N#Cc1c2ccccc2c2nnc3ccccc3n12`: the GI50 was 54.5 µM and the TGI was above 100 µM.
With `O=C(Cc1ccccc1)N/N=C(/c1nc2ccc([N+](=O)[O-])cc2[nH]c1=O)C(O)c1ccc(C(O)/C(=N/NC(=O)Cc2ccccc2)c2nc3ccc([N+](=O)[O-])cc3[nH]c2=O)cc1` (stereo unspecified), the TGI is above 100 µM.
`O=[N+]([O-])c1ccc(CN=C2NNS(=O)(=O)c3ccccc32)cc1`: the TGI was above 100 µM.
`c1ccc2nn(C3CCCO3)nc2c1` (stereo unspecified): the TGI was above 100 µM.
The molecule `CC1(C)SCc2nc3ccccc3n21` gave a TGI above 100 µM.
For the molecule `CC(=O)CC(=O)NC=O`, the TGI is above 100 µM.
Still for that read-out and setting: next, `COC(=O)[C@]1(C)CCC[C@]2(C)[C@@H](CCC(=O)C(C)C)[C@]3(C=O)O[C@@H]3C[C@H]21`: above 100 µM; `O=C1CC(C(OCc2ccccc2)C(OCc2ccccc2)C(OCc2ccccc2)C(COCc2ccccc2)OCc2ccccc2)CC(=O)N1` (stereo unspecified): above 100 µM.
`CCc1cccc(CC)c1NC(=O)CC1SC(N)=NC1=O` (stereo unspecified) displayed a TGI above 100 µM.
For `COC(=O)[C@@H](C)C[C@H](Cc1ccccc1)NC(=O)c1csc([C@@H](C[C@H](C(C)C)N(C)C(=O)C2(NC(=O)[C@H]3CCCCN3C)CCC2)OC(C)=O)n1`, the GI50 was 0.0247 µM and 0.0118 µM; the TGI was above 25 µM.
`CN(C)c1ccc(/C=c2\sc3nnc(-c4cccnc4)n3c2=O)cc1` came in with a TGI above 100 µM.
Turning to `O=C(c1cccs1)c1nc2cc(Cl)ccc2[n+]([O-])c1C(F)(F)F`, the GI50 is above 100 µM and the TGI is above 100 µM.
For `CCOC(=O)C1(C#N)C(C#N)(C#N)C1(C#N)C#N`, the TGI was above 100 µM.
Still for that read-out and setting: next, `COc1ccccc1N1C(=O)CSC1c1cc(OC)c(OC)c(OC)c1` (stereo unspecified): above 100 µM.
On the same count and under the same terms, next, `CSC1=C(C#N)C(=O)N(c2ccc(C)cc2)C(=O)C1C#N` (stereo unspecified): above 100 µM; `O=c1nc(N2CCCC2)nc(N2CCCC2)s1`: above 100 µM; `O=C(N/C=C/C=C/Sc1ccccc1)OCc1ccccc1`: above 100 µM.
Take `O=C(O)c1ccc(C(=O)O)c(C(=O)O)c1.[NH-]C1CCCCC1[NH-].[Pt+2]`: the GI50 is 18 µM and the TGI was above 96.5 µM.
For `O=[N+]([O-])c1ccc(/C(Cl)=C/c2ccc(/C=C(\Cl)c3ccc([N+](=O)[O-])cc3[N+](=O)[O-])cc2)c([N+](=O)[O-])c1`, the TGI was above 100 µM.
As to `O=C([O-])CCc1ccccc1.O=C([O-])CCc1ccccc1.O=C([O-])CCc1ccccc1.O=C([O-])CCc1ccccc1.[Mo+2].[Mo+2]`, the GI50 was above 100 µM and the TGI was above 100 µM.
In turn, `CN1CC=C(c2cccn2C)CC1` gave a TGI above 100 µM.
Still for that read-out and setting: next, `Nc1nc(Br)nc2ncn(C3CC(O)C(CO)O3)c12` (stereo unspecified): above 100 µM; `COc1cc(C2C(C(=O)O)=C(COC(C)=O)Oc3cc4c(cc32)OCO4)cc(OC)c1OC(C)=O` (stereo unspecified): above 100 µM; `O=C(CCc1ccc(O)c(O)c1)NCCc1cc(O)c(O)c(O)c1`: above 100 µM.
On the same count and under the same terms, next, `Nc1nc(N)c2ncn(-c3ccccc3)c2n1`: above 100 µM.
As to `O=C(Nc1ccc(I)cc1)c1cccc([N+](=O)[O-])c1O`, the GI50 is 3.99 µM and the TGI is above 100 µM.
`CCc1nc2ccccc2c(=O)n1/N=C(\N=Nc1ccc(Cl)cc1)c1ccccc1` had a TGI above 100 µM.
Molecule `COc1cc2cc3c4cc(OC)c(OC)cc4cc[n+]3c(C)c2cc1OC` registered a TGI above 100 µM.
Consider `Cc1[nH]c2nc3c(ncn3COCCO)c(=O)n2c1C(c1ccccc1)(c1ccccc1)c1ccccc1`, for which the TGI was 28.7 µM.
The molecule `CC(=O)N=c1ccc2nc(N)nn(O)c-2c1` had a TGI above 100 µM.
Regarding `O=C(Cc1ccccc1)N/N=C(/c1nc2ccc([N+](=O)[O-])cc2[nH]c1=O)C(O)c1ccccc1Cl` (stereo unspecified), the TGI was above 100 µM.
